The whole screen tested about 310,000 compounds, of which about 14,000 (4.5%) showed an effect of 50% or more. Effects have a minus sign here. This is one part of the list.
Target: human ether-à-go-go-related gene (hERG) potassium channel (human, UniProt Q12809)
Experiment: primary screen, population patch clamp on CHO cells stably expressing hERG
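Also: peak tail current of the secondary pulse compared with the same well before compound.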

human ether-à-go-go-related gene (hERG) potassium channel, sequence (Q12809 whole entry, looked up): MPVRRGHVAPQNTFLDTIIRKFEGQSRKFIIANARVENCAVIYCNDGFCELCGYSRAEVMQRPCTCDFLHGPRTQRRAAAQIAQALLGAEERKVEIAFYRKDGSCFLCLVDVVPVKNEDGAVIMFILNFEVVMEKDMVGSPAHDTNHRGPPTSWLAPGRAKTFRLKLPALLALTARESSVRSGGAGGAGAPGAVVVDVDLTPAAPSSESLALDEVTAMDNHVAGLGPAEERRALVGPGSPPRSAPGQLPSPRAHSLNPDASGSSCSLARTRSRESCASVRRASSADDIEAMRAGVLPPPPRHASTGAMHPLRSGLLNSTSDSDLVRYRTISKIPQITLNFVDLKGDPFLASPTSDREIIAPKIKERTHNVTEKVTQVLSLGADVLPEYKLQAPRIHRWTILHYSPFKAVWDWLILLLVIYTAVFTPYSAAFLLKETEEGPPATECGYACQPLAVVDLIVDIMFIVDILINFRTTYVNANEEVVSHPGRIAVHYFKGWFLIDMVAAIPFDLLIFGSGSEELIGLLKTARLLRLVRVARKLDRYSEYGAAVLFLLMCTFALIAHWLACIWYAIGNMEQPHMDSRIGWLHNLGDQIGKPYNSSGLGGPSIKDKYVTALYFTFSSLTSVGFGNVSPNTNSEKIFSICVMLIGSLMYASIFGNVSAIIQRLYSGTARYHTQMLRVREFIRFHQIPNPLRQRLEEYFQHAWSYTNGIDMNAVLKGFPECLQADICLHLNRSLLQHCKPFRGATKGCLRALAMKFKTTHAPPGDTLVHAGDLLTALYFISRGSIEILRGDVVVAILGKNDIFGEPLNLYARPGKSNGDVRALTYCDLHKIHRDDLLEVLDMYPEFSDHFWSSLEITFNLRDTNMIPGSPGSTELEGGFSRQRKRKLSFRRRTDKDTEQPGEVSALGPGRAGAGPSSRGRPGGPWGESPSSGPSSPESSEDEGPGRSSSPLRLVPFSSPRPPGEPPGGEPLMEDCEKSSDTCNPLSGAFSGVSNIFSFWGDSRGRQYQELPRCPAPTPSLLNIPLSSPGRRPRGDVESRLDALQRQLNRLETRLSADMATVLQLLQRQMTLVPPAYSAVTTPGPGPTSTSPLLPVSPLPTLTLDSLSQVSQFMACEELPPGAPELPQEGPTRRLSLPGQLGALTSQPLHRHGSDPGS

Compound | hERG current change (%, negative = inhibition) at 10uM
C#CCNC(=O)C1=C[C@@H](C2CCCCC2)C[C@@H](OCc2ccc(CO)cc2)O1 | -12.6%
COc1cc2nc(NC(=O)c3ccco3)sc(=O)c2cc1OC | -6.97%
CN1/C(=C\C=N\O)C(C)(C)c2ccccc21 | 17.1%
Cc1ccc(NC(=O)C[n+]2ccccc2)cc1[N+](=O)[O-].[Cl-] | 2.48%
O=C(NCc1cccnc1)C1CCN(S(=O)(=O)N2CCOCC2)CC1 | -5.95%
O=C(COC(=O)C1CCC1)Nc1cc(S(=O)(=O)N2CCCCC2)ccc1Cl | -15.8%
C=CCSc1nnc2nc3[nH]c4c(C)cccc4c3nn12 | 4.32%
COC(=O)c1ccc(COc2ccc(/C=C(\C#N)c3nc4ccccc4[nH]3)cc2OC)o1 | 2.96%
COc1ccccc1NC(=O)CSc1nnc(-c2ccco2)n1Cc1ccco1 | -65.4%
CN(C(=O)CCN1C(=O)c2ccccc2C1=O)C1CCCCC1 | 0.926%
O=C(c1cccn(Cc2ccc(Cl)c(Cl)c2)c1=O)N1CCOCC1 | -5.03%
CCN1CCN(C(=O)C2CC(c3ccc(F)cc3)=NO2)CC1 (stereo not drawn) | -9.34%
CN1C(C(=O)Nc2ccccn2)=C(O)c2ccccc2S1(=O)=O | -4.55%
O=C(CS(=O)(=O)c1ccc2ccccc2c1)N1CCCCCC1 | 2.23%
COc1cccc(C(=O)Nc2nnc(SCC(=O)NC3CC3)s2)c1 | 5.18%
COc1cccc(Nc2ccccc2C(=O)O)c1 | 19.2%
Cc1cc(Cl)ccc1OC(C)C(=O)Nc1ccc(S(=O)(=O)Nc2cnc3ccccc3n2)cc1 (stereo not drawn) | 5.55%
CC(C)(C)c1nnc(NC(=O)CCS(=O)(=O)Cc2ccccc2)s1 | 10.8%
NC(=O)N/N=C/c1coc2ccc3ccccc3c2c1=O | 12.3%
CCc1c(C)nc(SCC(=O)Nc2ccc(Br)cc2)[nH]c1=O | -1.51%
Cc1[nH]n(-c2nc(-c3ccccc3F)cc(=O)[nH]2)c(=O)c1CCO | 12.4%
CCOc1cc(S(=O)(=O)N(CC)CC)c(OCC)cc1-n1cnnn1 | -27.6%
COc1cccc(CNC(=O)N[C@@H](CC(C)C)C(=O)O)c1 | 10.9%

Compound | hERG current change (%, negative = inhibition) at 10uM
CNc1ccc(C(=O)N2CCN(S(=O)(=O)c3ccc4c(c3)OCCCO4)CC2)cc1[N+](=O)[O-] | -31.9%
C=CCCC(=O)N1CCC(n2nccc2NC(=O)c2ccccc2C)CC1 | -32.1%
Cc1ccc(/C=C2\SC(=S)N(c3cccnc3)C2=O)o1 | 6.67%
COc1ccc(Cl)cc1C(=O)Nc1nc(C)cc(C)n1 | 15.2%
O=C(O)C1C2C=CC(C2)C1C(=O)NCc1cccnc1 (stereo not drawn) | -6.8%
O=C1CCC(C(=O)N2CCCCO2)CN1CCc1ccccc1 (stereo not drawn) | -8.39%
Cc1nc2cc(C(F)(F)F)ccc2n1C1CCN(CC(=O)N2CCOCC2)CC1 | -44.4%
O=C1NNC(=O)C1c1ccccc1 | 25.7%
c1ccc(Cn2c(Nn3cnnc3)nc3ccccc32)cc1 | -26.6%
COc1cc(CNCCc2ccc(S(N)(=O)=O)cc2)ccc1OCC(=O)N1CCCCC1.Cl | 23.3%
O=[N+]([O-])c1ccc(-n2nncc2-c2ccccc2)cc1 | -29.4%
COc1cc(C(=O)OCC(=O)Nc2cccc(S(=O)(=O)N3CCCC3)c2)ccc1OCC(C)C | -2.3%
Cc1nc2cc(NS(=O)(=O)c3ccc(Br)cc3)ccc2n1C | 1.73%
Cc1cc(=O)oc2cc(NS(=O)(=O)c3ccc(F)cc3)ccc12 | 18.3%
Cc1ccccc1CSCC(=O)N1CCN(c2ccccc2)CC1 | -35.5%
C=CCNC(=O)c1onc(CSc2ccccn2)c1C(=O)NCC=C | -7.02%
S=C(NCc1cccs1)Nc1ccccc1 | 7.71%
O=C(COC(=O)c1ccccc1C(=O)c1ccccc1)Nc1cccc([N+](=O)[O-])c1 | -20.5%
Cc1nc(CN2CCN(C(=O)NC3(c4ccccc4)CC3)CC2)cs1 | -1.15%
Cc1ccc(NC(=O)C2CCCN2C(=O)Oc2ccccc2)c(C)c1 (stereo not drawn) | 11.1%
OCCOc1ccc(CN2CCN(CCCc3ccccc3)C(CCO)C2)cc1 (stereo not drawn) | -63.3%
O=C(NCc1ccccc1)c1ccc(Cn2cc(C(F)(F)F)ccc2=O)cc1 | -24.4%
CC(C)Sc1nnc2n(CCc3ccccc3)c(=O)c3c4c(sc3n12)COC(C)(C)C4 | 4.77%

Compound | hERG current change (%, negative = inhibition) at 10uM
CCN(CC)c1nc2c(c(=O)[nH]c(=O)n2C)n1Cc1ccccc1Cl | 9.51%
CCO.COc1cc(C2C(C#N)=C(N)N(N(C)C)C3=C2C(=O)CC(C)(C)C3)ccc1O (stereo not drawn) | -1.14%
O=Nc1c(-c2ccccc2)cc2ccccn12 | 15.4%
CN1CCCN(C(=O)c2ccc(Cl)c(S(=O)(=O)N(C)c3ccccc3)c2)CC1.Cl | -12.6%
O=C(N=C1SC2CS(=O)(=O)CC2N1CCc1ccc(F)cc1)C1CCCCC1 (stereo not drawn) | 18.6%
CN(C)CCOCCOc1ccccc1-c1ccccc1.O=C(O)C(=O)O | -17.7%
CCOc1ccc(-c2ccc(SCC(=O)NC3CCCCC3)nn2)cc1 | 20%
CC(=O)c1cc2c(cc1NS(=O)(=O)c1ccccc1F)OCO2 | -14.6%
CN1C(=O)/C(=C\c2ccncc2)SC1=Nc1ccccc1 | -11.2%
COc1ccc(NC(=O)c2nc(-n3nc(C)cc3C)ccc2Cl)cc1Cl | 9.39%
COc1ccc(/C=N/Nc2nc3ccccc3[nH]2)cc1OC | -21.8%
CCOc1ccc(C(=O)N2CCN(c3ccccn3)CC2)cc1 | -26.7%
Cc1ccc(NC2=CC(=O)CCC2)cc1C | -2.29%
Cc1ccc(C)c(C(=O)CCC(=O)N2CCN(c3ncccn3)CC2)c1 | 2.86%
Cc1ccccc1OCC(=O)N(Cc1cccs1)C1CCS(=O)(=O)C1 (stereo not drawn) | -27.8%
CCN(CC)C(=S)SCC(=O)Nc1ccc(S(N)(=O)=O)cc1 | 3.17%
COc1cc(CNCc2cc(OC)ccc2OC)cc(OC)c1.O=C(O)C(=O)O | 5.79%
Cc1ccc(NC(=O)N2CCC(NC(=O)C(C)(C)C)CC2)cc1 | 10.1%
COc1cc(C)nc(Oc2ccc(OCCOc3ccc(C)cc3)nn2)n1 | -3.3%
COCCN(CCOC)c1ncc(Cl)c(C(=O)c2c(C)cc3ccccn23)n1 | -4.6%
O=C(CSc1nnc(-c2ccccc2)n1Cc1ccccc1)N1CCCC1 | 6.79%
Cc1cccc(/C=N/N(CCO)C2=NS(=O)(=O)c3ccccc32)c1 | -19.8%
Cc1cc(=O)[nH]c(N=N/C(=N/Nc2ccccc2C)c2ccccc2)n1 | 3.58%

Compound | hERG current change (%, negative = inhibition) at 10uM
CC(C)(C)c1ccc(CSc2nnc(-c3ccccc3NC(=O)c3ccccc3)o2)cc1 | -2.8%
O=C(Nc1ccccc1)C1CCCN1/C=C/C(=O)C(F)(F)F (stereo not drawn) | -6.34%
COc1ccc(C)cc1NC(=O)CCC(=O)Nc1ccc2nc(N3CCN(C)CC3)cc(C)c2c1 | -18.6%
O=C1C=C(N2CCOCC2)CO1 | 9.55%
CCCCOc1ccc(-c2ncc(N)cn2)cc1 | 16.3%
CCn1c(CCCNC(=O)c2ccco2)nc2ccccc21 | 11.6%
N#CC1=C(N)SC(N)=C(C#N)C1c1ccc(C(F)(F)F)cc1 | 15.1%
CNC(=O)CN(c1cc([N+](=O)[O-])ccc1OC)S(C)(=O)=O | 4.24%
CNC(=O)NC(=O)COc1ccc2oc3c(c2c1)CCCC3 | 26.3%
COc1ccccc1NC(=O)CSc1nc(C)c2c(c1C#N)CCCC2 | 7.26%
Cc1ccccc1OCCn1c(C)nc2ccccc21 | -9.71%
O=C(CCNS(=O)(=O)c1ccc(Br)cc1)NC1CCC(O)CC1 (stereo not drawn) | 18%
O=C(NC1CCN(S(=O)(=O)c2ccccc2)CC1)c1ccc(F)cc1 | -13.3%
O=C(NCC1CCCO1)c1ccc2c(=O)n(Cc3ccco3)c(SCC(=O)N3CCCC3)nc2c1 (stereo not drawn) | -79.3%
CCOC(=O)/C(=N/O)C1=NC(C)(C)Cc2cc(C)c(C)cc21 | 3.67%
CCOc1ccc(N2CC(C(=O)NNC(=O)c3ccc(F)cc3)CC2=O)cc1 (stereo not drawn) | -25.4%
O=C(NCC1CCCO1)c1cnn2c1NC(c1ccccc1)CC2C(F)(F)F (stereo not drawn) | 1.68%
CC(=O)c1c(C)n(C)c2ccc(OC(=O)c3ccco3)cc12 | -1.35%
COc1ccc(N2CCN(C(=O)C3CCN(S(=O)(=O)c4c(C)noc4/C=C/N(C)C)CC3)CC2)cc1 | -53.8%
COc1ccc(N2CCCCn3c2nc2c3c(=O)[nH]c(=O)n2C)cc1 | -9.2%
N#Cc1c(NC(=O)CN2CCOCC2)oc(-c2ccccc2)c1-c1ccccc1 | -27.3%

From PMC4336329 (PLoS ONE, 2015)
